The chains are these.
B1: GBRAP_96_7099 (protein)
chain: MLEEAEELVRKLLEALDTDPELAKKLAKELLEFPVEVVVEALVKEVKTPEEAYKVTSILLSLGDPKAEEVALEFAEKSDGDRSKAIIEAMKEYEKEKEAA
B2: GBRAP_160_4076 (protein)
chain: MEEVEELEKEIKEIAEEAIKFIEESDEENQIAIIRMMAGDILLLVFEAPFISDEDEEEIDEILDEYVKKFEENKDWSIEEKKELIKEMAEKVIEKVKKAA
B3: GBRAP_52_6239 (protein)
chain: MAARMRAAAERILALVRAGDEAGARALAEELAATLDEEEARLFIREFAALAARQPAADIDAVWRAAEIVAEALEAAGWPEVLVDDLEAAVAAALVAVEAA
B4: GBRAP_11_2789 (protein)
chain: KKEKLKELARKLEEAAKLLEQLLASSPDDEELWKELERKLEEAKKLAKEAGLEDVAELLEYAIELVKKAKADPANRQQYLTEALAFVRVAKGLVLLEIEE
B5: GBRAP_128_3544 (protein)
chain: SLEAARARARAAMAAIAASDVETAYAITVELLEWLKTKSLEEVEAAVEEIEARLPELSAEKLEALADAIEEERGKFSPEVQRLLAGVEVEALNLAEELEE
B6: GBRAP_160_4385 (protein)
chain: AAALAALAKEIEALRKEFEEEAKDLNTEETRTLAIGVLAEVAALAWENEAISEETKDKIFAIIDEAIEELKANKDAPPEEIVAITTEAFDKIIALVKAEA
B7: GBRAP_80_6865 (protein)
chain: ADEKVAATLALAKSKDPELAALFEELVKELKKLGVSDEDIARIAEIISDIIELDPELAKEALKEMVKEAKKYLKEGKGEEALVVVLGIAGEALMEAEEKE
B8: GBRAP_184_5056 (protein)
chain: MIHEKVIKAETLEELEEKLEELEEELKDFKGELIVHVEIPEFTEEMIELIIERLKRILENGYVSSVTLGLDGKMSEEVVDLAIKLADEAGIKLVIALEEE
B9: GBRAP_184_5199 (protein)
chain: KVLEIEVTVSNLEEAKKKMEEILAKAKEEKADLLLILDLKTSTKEIIETIMNALGKIKKEGYAPNVLVELEGDLSDENIDLAFKLADEAGVSLVIALPEE
B10: GBRAP_160_4479 (protein)
chain: MEKVKEAAEELRERVEETLEESKDETPEQLTLAVSIELGSSLMEFSSEGKINDEQEDIVIEAMDRIRELGEEKKDATVEEVRKEIREIIKETVEKILAAA
B11: GBRAP_160_3976 (protein)
chain: SEEVEALKKEIEEIFEEAKELIEGESFEERLAIIKVAVGEIILLVSENPLMSDETEEKVAKIGDELIAYLEANPDLSLEEIKELIEKALEEIKKIIEEDA
B12: GBRAP_35_5547 (protein)
chain: DPETETVEMLLNTMEDIVLALPDVSPEDLETLTKHLIDLANLAIEEKPKNKELLERLIKALEEAIKIVEASDLPEEVKAELLKELEKARKEAEKLLEKVK
B13: GBRAP_35_5607 (protein)
chain: DSMKETVDMLVATIDDLTLAVPDLPVEQLVAIANSLIDSARALIEELTDDKEAAQRLLDSLQRLLDALKKHHGDNPLAQVTIARVEETIAFAKARIAAIK
B14: GBRAP_160_4009 (protein)
chain: SEETEKLKKEIEELIKELIEEMKGLTPEERLTLARGTVGEIIQLALESPAVSDETEEKIAEIGDEFLKRVEENANAPLEVWEEIAEEYLEKVKKLLEESE
B15: GBRAP_52_6284 (protein)
chain: SREEVKKTAEEIVELVKEGKLEEAIKLAKEAVEKFSLEEVIELGELLVEKIAELKPEEIDLALEVVEALAEGLEEKFGAEEEADILEARAAAAAYAALQR
B16: GBRAP_83_6988 (protein)
chain: AEKIAVAANGDRLEEAVEIAIDLTKEEGYDVSLEFIVDKSDWPRVLEAVRRLAEAGIETEILVSVEGATPEEAAEMLAELEAIAAEAGSNFRITVEVIEP
B17: GBRAP_150_3919 (protein)
chain: DLETLKTIVDTAIDILEAILDGEFSLLPHALKLAEIALEEAKEIDEELKKLAEEALKLVKEAKKLLEEGGKKEEILKAVKEALEVLKKLLKKIEEKIKEK
B18: GBRAP_128_3384 (protein)
chain: VPEEVKERAEKMAKELVEASLEEVPELVKKIVEEMEKLSDEEREYLVEVLEKAFEEMSLEKLEAILDTLLELRPKLSPKTQEFVNDLIVAVGEKILELEE
B19: GBRAP_78_6649 (protein)
chain: EVEELIDKALEHIDEAAKLAKKLPEEERNELLSELTLASSYLLESEENGFDLELLEEALKELEKAKELVKKLKSEVAPEILKELEEAIKLVKEAIKKVKE
B20: GBRAP_74_6520 (protein)
chain: MEELLKKLEEAAEAGDAEKAVELAREIVEKGDLETIERAARILVAFVDRHLDTLTPEELEAVSDALAELADALMERGGDSETVIAVANAAVRAEKKRLAL
B21: GBRAP_160_4018 (protein)
chain: SAAIEALIKEIEEEIEKTKEDMVGESPEERLTLARGTAGDILMLIFESPEVSDESEEKIAELLDKFLKKLEENKNASLEVWYEILDELLEEIKKILKEDE
B22: GBRAP_160_4125 (protein)
chain: MEEDIKTLKDAAEDLKETLETIETLSPEEAAVLAEVTLLNAALEMDELNGKFKELEDKAVEAADKIRETAKTDPEKTKETAKKELEEAAKAFEEAAKKLE
B23: GBRAP_184_5313 (protein)
chain: EVKEVVIEAETAEEAIEQLNKAAEKAKKEGVKLNVYLFLKNVDVEGFEKIAKKIKELKEEGIIESATVEILDDKTEEEIDKFIELADKAGIKLVLALPDE
B24: GBRAP_125_3043 (protein)
chain: GEEEQIEALRALAKILGLSEEEVEELAELARKYGVKGALIALLLAEGKEELAELFAKLSEEAVAKVLKEFLAYLKAHPNITREEAIEKLEELAKEALAKE
B25: GBRAP_184_5058 (protein)
chain: KIYERVIKAENLEELKEKLDELEEEVKDFKGTLIVLVEVPKFTPEMVETLMARLKEILDKGYASSVTVGLDGEMSEEVRDLAIKLADEAGVNLTLALEEE
B26: GBRAP_11_2736 (protein)
chain: EKEKLEKVAKLAEEAAKAADELLEKGVDDEELREKIRKLLEEIEKLVKELNDKFLQKLVEIAKEEFEKSLADPENAEEHLTLARAALRVLEGQVQLLIDE
B27: GBRAP_160_4106 (protein)
chain: DEKYEEFLKDVEEVFKEVLELYDKISADELVNYYTVEMSAVIMEAKDELNLSDETVDELLEVVDEGAEKLKENYDKSKEEIKKILEETYKKIKEVLEKNK
B28: GBRAP_53_6410 (protein)
chain: MEEEIKKLKEEILKLAEKATEANEEEQKKLAKEIGKKLKELVKAGMSKEELKKLLVEIAKKLKEAGASDKVLVILIKAAVELGLEEAAAEIAELIVEDLE
B29: GBRAP_52_6208 (protein)
chain: MAERARRLAEELLALMRAGDREGARALARRIAREWDDEELRVFFEEFVRLAREAAPEDHDLVFELAELLADELEREGREEVLADDFLNAVAAALYEREQA

The full ranking holds about 4,500 sequences; the median of “median log2 fold change of GCK-ALFA target abundance (FLAG IP / Myc IP barcode read proportion)” is about 0.078, and the lowest 2% start at about -0.6. Some of the results follow.

GABARAP, O95166, sequence (O95166 whole entry, the tested form may be a part): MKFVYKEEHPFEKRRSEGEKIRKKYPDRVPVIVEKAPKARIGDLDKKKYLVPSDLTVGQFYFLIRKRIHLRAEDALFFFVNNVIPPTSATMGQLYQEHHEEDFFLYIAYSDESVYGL

The assay has as its target GABARAP, O95166. Put plainly: median log2 fold change of GCK-ALFA target abundance (FLAG IP / Myc IP barcode read proportion) (log2 ratio); each designed protein is fused to an ALFA-tag nanobody in HEK293 cells to bring the named protein to FLAG-tagged glucokinase (GCK); Myc marks an untargeted standard; higher = target protein stabilised (more abundant). Particulars: target protein: 3xFLAG-MCP-GCK-ALFA reporter; HEK293 landing pad (RPLP). In a few lines: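 Binders fused to an ALFA nanobody were recombined as a library into HEK293 landing-pad cells, which were induced with 2 μg mL^−1 doxycycline and then transfected to express a FLAG-tagged target and a Myc-tagged standard. After 48 h, circular RNA barcodes recovered by anti-FLAG and anti-Myc immunoprecipitation of lysates were reverse transcribed, amplified and sequenced. Each binder's target abundance is the median log2 ratio of FLAG to Myc barcode read proportions, from barcodes present at ≥10^−7 in both replicates, binders carrying ≥3 barcodes per replicate, a 10^−6 pseudocount and pooled replicates.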
For the molecule B1, the “median log2 fold change” value came out at 0.12.

On to B2, for which the “median log2 fold change” value was -0.449.

On to B3, for which the “median log2 fold change” value is -0.504.

On to B4, for which the “median log2 fold change” value stood at 0.0274.

With B5, the “median log2 fold change” value is -0.229.

On to B6, for which the “median log2 fold change” value was -0.171.

B7: the “median log2 fold change” value came out at 0.107.

On to B8, for which the “median log2 fold change” value was found to be 0.234.

Turning to B9, the “median log2 fold change” value was -0.0295.

Consider B10, for which the “median log2 fold change” value is 0.0127.

Take B11: the “median log2 fold change” value was -0.486.

Turning to B12, the “median log2 fold change” value is 0.0216.

In the case of B13, the “median log2 fold change” value was -0.379.

On to B14, for which the “median log2 fold change” value came out at 0.232.

As to B15, the “median log2 fold change” value is -0.109.

With B16, the “median log2 fold change” value is 0.0132.

B17: the “median log2 fold change” value worked out at 0.0646.

For the molecule B18, the “median log2 fold change” value is 0.201.

Consider B19, for which the “median log2 fold change” value was 0.516.

Turning to B20, the “median log2 fold change” value is -0.0238.

As to B21, the “median log2 fold change” value is -0.304.

In the case of B22, the “median log2 fold change” value is -0.00553.

B23: the “median log2 fold change” value turned out to be 0.164.

On to B24, for which the “median log2 fold change” value was -0.0155.

Consider B25, for which the “median log2 fold change” value came to 0.139.

As to B26, the “median log2 fold change” value was 0.101.

As to B27, the “median log2 fold change” value was -0.00592.

In the case of B28, the “median log2 fold change” value was determined as 0.234.

B29: the “median log2 fold change” value turned out to be 0.118.

Source of the values: the supplement of paper PMC12632987.
